Drawing on paper PMC7819943, “Rice protein-binding microarrays: a tool to detect cis-acting elements near promoter regions in rice”, this text covers binding signal for 42 sequences.

Some of the results follow.

This test concerns the target T1, OsWOX13 (Oryza sativa, UniProt Q5QMM3 1-267).
T1 sequence: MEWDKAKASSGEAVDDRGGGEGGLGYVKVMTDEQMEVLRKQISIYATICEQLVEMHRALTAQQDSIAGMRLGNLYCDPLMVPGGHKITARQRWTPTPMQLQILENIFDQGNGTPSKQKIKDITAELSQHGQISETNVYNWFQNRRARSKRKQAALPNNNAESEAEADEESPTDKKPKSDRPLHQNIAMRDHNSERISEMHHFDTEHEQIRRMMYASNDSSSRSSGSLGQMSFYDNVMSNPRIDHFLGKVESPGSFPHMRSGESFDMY
Put plainly: protein-binding microarray (RPBM); PBS, 2% BSA, 51.3 ng/ul salmon testes DNA, 50 uM zinc acetate, 200 nM TF, 25 C, 1 h; high values mean tight binding. The settings on record: protein: recombinant; tags: N-terminal polyhistidine and DsRed monomer fusion (pET32a); label: CyDye5-dUTP incorporated in the synthesized complementary strand; 3' TTTTT single-stranded linker to array surface; dsDNA, one strand shown. Put shortly:
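Binding signal is reported as fluorescence intensity per feature (arbitrary units) from an Axon 4000B scanner. Incubation used 200 nM of each Ni–NTA-purified, N-terminally polyhistidine- and DsRed-fused transcription factor from E. coli BL21-CodonPlus on a double-stranded custom Agilent array for 1 h at 25 °C, with 50 µM zinc acetate in the buffer, followed by washing.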
For the sequence “CCAAAATTGCATTCGTGAGTCGTGACCTGACCTGACCTGACGGAGTCACCTAGTGCAG”, the binding signal is 5260 fluorescence intensity (a.u.).
Under “TAGATTTAATTACAACGAATGCAACAGTGCAATCAGATTGCGGAGTCACCTAGTGCAG” stands 15400 fluorescence intensity (a.u.); under “TGCAGAAGTTGTTTGATTGTCTATCAAACGTTGCCACGCCCGGAGTCACCTAGTGCAG”, 11000 fluorescence intensity (a.u.); under “GATGATGATGATGATGATGATGAGAAGGTGGTGCCGCCGCCGGAGTCACCTAGTGCAG”, 27800 fluorescence intensity (a.u.).
Under “GCCTAATTAATCCATGATTAGCTTATGTGATGCTACATTACGGAGTCACCTAGTGCAG” stands 36300 fluorescence intensity (a.u.); under “GAATAATATGGACAAATTGATCTTTCTCTGTCCCTACTCACGGAGTCACCTAGTGCAG”, 10700 fluorescence intensity (a.u.).
Under “AAGAAAATTATTTGCTGCTACTATTCTTCACCTACAGTTGCGGAGTCACCTAGTGCAG” stands 3920 fluorescence intensity (a.u.); under “TATTGATTTGATAAATTTAATTTAGTACTATAAATATTATCGGAGTCACCTAGTGCAG”, 16900 fluorescence intensity (a.u.).
With “GTGATAATTTAGTTACTAAACATGTTGTGAAACTTTATCTCGGAGTCACCTAGTGCAG”, the binding signal was 3720 fluorescence intensity (a.u.).
As to “TCATTTTGAATAAATTAATTTTGAAGTTGATCTGTTGTATCGGAGTCACCTAGTGCAG”, the binding signal is 15500 fluorescence intensity (a.u.).
In the case of “TATTTAATTTGTTGAACTAGCCATCTGACCCGTGCGTATCCGGAGTCACCTAGTGCAG”, the binding signal was 30400 fluorescence intensity (a.u.).
Under “ATGTTAAATTATACTACATCCGTTTCAGGTTATAAGATGTCGGAGTCACCTAGTGCAG” stands 6910 fluorescence intensity (a.u.); under “CTATTAATTGTAGGTTATAAATGCCCATCTTAAACCCTGTCGGAGTCACCTAGTGCAG”, 29600 fluorescence intensity (a.u.); under “CTATCAACAATCAATTTGATGTATGTGCTCTTCTTTGTGCCGGAGTCACCTAGTGCAG”, 11200 fluorescence intensity (a.u.).
The figure for “CAGTTCAAATAAATTTAGATTGGGTTATTTAAAGGCTAAGCGGAGTCACCTAGTGCAG” is 11100 fluorescence intensity (a.u.); for “GACTAATGAGGTACTTGTCAATTGTCATCAGATGTGCCAGCGGAGTCACCTAGTGCAG” it is 5410 fluorescence intensity (a.u.); for “TCGGTATTGTGATTGAGGGGTAAGAGTAAGTTTCGGCCACCGGAGTCACCTAGTGCAG” it is 18700 fluorescence intensity (a.u.).
For the sequence “ACGTAATTAAGAGTGAATTAATTCTACATGTATCTATCAACGGAGTCACCTAGTGCAG”, the binding signal is 24500 fluorescence intensity (a.u.).
The figure for “ATTAATTTCACCATGAATAATGTGGATAATCATATCTTTCCGGAGTCACCTAGTGCAG” is 7960 fluorescence intensity (a.u.).
As for “AATTTATCTCTAATTTTATATAACTATTTAGACGATGAAGCGGAGTCACCTAGTGCAG”, the binding signal is 4720 fluorescence intensity (a.u.).
The figure for “TCTTGACACCGGCCGGATTGATCTATCATCCATCCATCGACGGAGTCACCTAGTGCAG” is 12300 fluorescence intensity (a.u.); for “TTCTGTAATTGATAGGTTAAGGGCCCCTTTGAATCACAGGCGGAGTCACCTAGTGCAG” it is 50400 fluorescence intensity (a.u.); for “ACTATTCTATTATGATGATTAGGCTGTTATTGGTTGAAGTCGGAGTCACCTAGTGCAG” it is 7170 fluorescence intensity (a.u.).
In the case of “TAGTTAATTGTAGATATACATCGTATCATTAATACCTAATCGGAGTCACCTAGTGCAG”, the binding signal was 20500 fluorescence intensity (a.u.).
As to “CAAATGATTGGATACCATCCTCAGAGACGGTATGGCAGTACGGAGTCACCTAGTGCAG”, the binding signal is 50000 fluorescence intensity (a.u.).
Under “AACTAACTAGGAGTATTAATTAATTCCTTCCACTAATCACCGGAGTCACCTAGTGCAG” stands 11800 fluorescence intensity (a.u.); under “AACGGAATTAAACTAACCGTTGACTAGCGGCAATGGTATGCGGAGTCACCTAGTGCAG”, 3820 fluorescence intensity (a.u.).
The figure for “CCATAATTGAGGGCTCCAAGTAGACTTCTTACTTTCGAAACGGAGTCACCTAGTGCAG” is 32400 fluorescence intensity (a.u.); for “CGTCTTGATTTGGTGGAGCATGATAGCGTATTACTAGTTTCGGAGTCACCTAGTGCAG” it is 14800 fluorescence intensity (a.u.); for “TCAAAATTGATAAGTGTTAATTAGACATAAAATATATTCACGGAGTCACCTAGTGCAG” it is 24800 fluorescence intensity (a.u.).
The figure for “TTCTCAATTGAACCTCTTTTCTGTTGTCGATTAATATAAACGGAGTCACCTAGTGCAG” is 3280 fluorescence intensity (a.u.); for “CTCCGAGATTGATCTTGCCCGCTCTCATGTGCGAAAGCTTCGGAGTCACCTAGTGCAG” it is 21400 fluorescence intensity (a.u.).
For the sequence “GTTAATGGATGTAGATATATATATCTATCTAGATTTATTACGGAGTCACCTAGTGCAG”, the binding signal was 7040 fluorescence intensity (a.u.).
Under “CGTAACTTCATTTACAAATCTTCCGATTAACCCATAAGCCCGGAGTCACCTAGTGCAG” stands 5080 fluorescence intensity (a.u.); under “CTCGCTACTGATAGATTTGGCCAATGGAGACGTTCCTGCTCGGAGTCACCTAGTGCAG”, 10400 fluorescence intensity (a.u.).
The figure for “TCTTAATTTAGATGAAGTTAAAACTGTTTAGCTGAGCTCTCGGAGTCACCTAGTGCAG” is 29000 fluorescence intensity (a.u.); for “ATTATTGACAATTGTCTAAGTATGCTTCTAAAATTATTTCCGGAGTCACCTAGTGCAG” it is 11000 fluorescence intensity (a.u.); for “TTGATTTGGTTGATTGCCTCCTTCGTTCGTCCACGCTCAACGGAGTCACCTAGTGCAG” it is 57100 fluorescence intensity (a.u.).
The figure for “ATTTCAAATTATTTAATTAGAGTCAGATGGAGAAATGACCCGGAGTCACCTAGTGCAG” is 17100 fluorescence intensity (a.u.).
Turning to “TTCGATTTAACTGTTCTATTACTGAGGTACTCTTCGATTTCGGAGTCACCTAGTGCAG”, the binding signal was 6940 fluorescence intensity (a.u.).
For the sequence “AATGGAAGCCTATTAATTGGTAATACGTAATCTAGAATTGCGGAGTCACCTAGTGCAG”, the binding signal was 8540 fluorescence intensity (a.u.).
“ATGCCAAATTGCCAATGGTGATGTGATCATGTGAAAGACACGGAGTCACCTAGTGCAG”: the binding signal is 5420 fluorescence intensity (a.u.).
